Results on 44 sequences are retold here after the supplement of paper PMC11417369.

Some of the results follow.

For this assay, the system named is PfSIP2 AP2 domain 1 (GST-tagged). As to the kind of experiment: gcPBM binding intensity (ln(normalized median fluorescence intensity)); higher = stronger DNA binding. The method, boiled down: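 Using an Agilent 4 × 180k array, primer-extended double-stranded 36-bp intergenic genomic probes and negative controls were exposed for 1 h to GST-fused P. falciparum DNA-binding domains expressed in E. coli. Binding was carried out in 1× PBS with 1% milk, 0.2 mg/ml BSA, 0.5% salmon testes DNA and 0.03% Triton X-100, and protein was detected with Alexa488 anti-GST antibody and a 488 nm scan. Binding intensity is the highest Masliner-normalised natural-log median intensity across replicate spots of either probe orientation.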
With “AATGTAATATAAATATGTACATATAAACTATATATA [XGTACX_site6871]”, the “gcPBM binding intensity (ln)” value was 7.03.
“ACTTATGATTTATTTTGTACATATATACTATTCCTG [XGTACX_site5275]”: the “gcPBM binding intensity (ln)” value came out at 7.21.
The same measure for “GTTTTAAAACAAATATGTACACATAATATAGGAAAG [XGTACX_site1803]”: 7.63; for “ACAAATACTAACAACGCATGTAAGCCTACAATAAAT [TGCATGCA_site551]”: 6.86.
Take “GCTCCTTTTACCATCGCACACGATAAAAAAAAATAA [CACACA_site3255]”: the “gcPBM binding intensity (ln)” value is 8.13.
Take “ATCCTCTTTTTAAGTTGTACAGGGTCGAAAAAAAAA [XGTACX_site6852]”: the “gcPBM binding intensity (ln)” value came to 7.27.
The same measure for “GATTATTATTATAAGGGTACAAATATTTAATAAAAA [XGTACX_site7144]”: 7.03; for “CATGTCAAAATTATACGTACATATATAAGTTCCATT [XGTACX_site6331]”: 7.08.
On to “AAAAAAAAATAAAAAAGTACATTCATTTTATAAGAT [XGTACX_site3507]”, for which the “gcPBM binding intensity (ln)” value was 6.95.
Turning to “AGATAGCTATTAAAAAGTACAAAAAAATATATATAT [XGTACX_site6289]”, the “gcPBM binding intensity (ln)” value came to 8.24.
The same measure for “ATAAATACAGATATTACACACTTCTTATTCTAAGAA [CACACA_site5640]”: 6.81; for “TATTTTATATAAAGGTGTACTTATACAAAAATATAT [XGTACX_site7435]”: 7.22.
Consider “TATACAGGAATATTTTTACACACTAATAATTATAAA [CACACA_site8477]”, for which the “gcPBM binding intensity (ln)” value came to 7.02.
For “TTTTTTCAAATTATTCGATATGTAAAAAAATAAAAT [GTGCAC_negctrl_site241]”, the “gcPBM binding intensity (ln)” value is 6.97.
Under “AAATATTTGTGTGGTTGTACTATAATGATAAAAATA [XGTACX_site7703]” stands 7.27; under “TTTTTTTTTTTTGAGTGTACAAGATTGTTGTTCCAA [XGTACX_site6120]”, 6.9.
On to GGTTTGAATTTTTAAGTGCATATAACATAAATGAAA, for which the “gcPBM binding intensity (ln)” value is 8.89.
The same measure for “TTATATTATATATATATTATATATATGTATGCATAA [TGCATGCA_negctrl_site481]”: 7.16; for “CATACATACAAACACACACACATATATATATATATA [CACACA_site43]”: 9.75.
The same measure for “AATAAGTGTTGATTCTTAAAATGACCATATAATAAT [TGCATGCA_negctrl_site221]”: 7.09; for “TCATATTTACAAAAAGGTATTAATAAATAAAATATT [CACACA_negctrl_site259]”: 6.82.
For the sequence “ATATTAGGGTCATGAACACACAAAAAAAAAAAAAAA [CACACA_site937]”, the “gcPBM binding intensity (ln)” value worked out at 7.04.
Under “TATCTTTTATAAGTGACACACATAAATATTTAAATT [CACACA_site833]” stands 7.03; under “GCTATCATATCATGTTGTACACAACCTCAAAATGAA [XGTACX_site8757]”, 7.4.
Take “TTTAATTCTTATATTTGTACAGATTCATAATTAAAT [XGTACX_site7465]”: the “gcPBM binding intensity (ln)” value was found to be 6.88.
With “CGTTTATTAAACTTGACACACACACCCCCACATATA [CACACA_site8151]”, the “gcPBM binding intensity (ln)” value worked out at 7.84.
The same measure for “AATCGATAACAATGTAGTACCAGAAAAATAAATATT [XGTACX_site8501]”: 6.99.
Under “TATATATATATATATGCATGCCATATGATATATATA [TGCATGCA_site109]” stands 9.35.
In the case of “ATTATATCACTGTGTTGTACTTCTTATATAAAAATA [XGTACX_site2333]”, the “gcPBM binding intensity (ln)” value came out at 7.02.
The same measure for “ACATATCGGGTGCATTAACACACATTTATTTGAATA [CACACA_site8736]”: 11.6; for “TCCGTATAATTTTGCACACGAATATAAATTTGATAA [CACACA_site136]”: 7.6.
Consider “ATAAAAATAAAATGGACACACATATATACATATTTG [CACACA_site3277]”, for which the “gcPBM binding intensity (ln)” value was determined as 6.84.
Under “AATTATAATAAATAACGTACAAAAAATAAATTATTT [XGTACX_site3627]” stands 7.1; under “TATATATTCATGTGTACACACAAAAAAAAATAAAGT [CACACA_site2207]”, 7.51.
Under “ATAAGCGAATATATATCACACACAAAAAAATCAGAC [CACACA_site8657]” stands 7.65; under “TTTTTTTTTGATATTTGTACTTAAGTAAATATTATA [XGTACX_site3843]”, 6.88.
With “ATATTACACAGATATGCACACATTGTAGTTATTTAT [CACACA_site5454]”, the “gcPBM binding intensity (ln)” value worked out at 8.57.
On to “AAAAAGGAAATTTACACACACATATAACATACATTA [CACACA_site7534]”, for which the “gcPBM binding intensity (ln)” value came to 7.03.
Under “AATGTATTATGTAATAGTACGTATAATATCTTATTT [XGTACX_site3]” stands 6.89; under “ATACATATCTATAATACACACATAAATGTAACATTT [CACACA_site7621]”, 7.32.
In the case of “TTCTACGTTTTAAAAAAAAAAAAAAAAAAAAAAAAA [XGTACX_negctrl_site6]”, the “gcPBM binding intensity (ln)” value came out at 6.95.
With “TGAAGATAAAAATATGCACACATATATATATATATA [CACACA_site8027]”, the “gcPBM binding intensity (ln)” value stood at 9.77.
“CATAAAAATGAACATACACACATATATTTATTTATA [CACACA_site7222]”: the “gcPBM binding intensity (ln)” value was found to be 6.85.
As for “ACATATTATAGGAATACACACAAAAACTTATCGGTA [CACACA_site7587]”, the “gcPBM binding intensity (ln)” value was determined as 7.01.
